Data: publication PMC9911399, “Two distinct binding modes provide the RNA-binding protein RbFox with extraordinary sequence specificity”
Numbering of substitutions follows the chain as printed; changes in the protein carry UniProt numbers. Some of the results follow.

T1: RBFOX1 RRM (Homo sapiens, UniProt Q9NWB1 109-208)
T1 sequence: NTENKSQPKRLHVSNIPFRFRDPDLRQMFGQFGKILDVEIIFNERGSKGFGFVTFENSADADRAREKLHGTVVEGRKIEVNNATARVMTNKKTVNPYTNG

B1: GGCGGCU (DNA:RNA)
RNA: GGGAGACCGGAAUUCAGAUUGUCCGGCGGCUUUAAAUCCCGUCGUAGCCACCA
DNA 1: CAATCTGAATTCCGGTCTCCC
DNA 2: TGGTGGCTACGACGGGATT
B2: GAGGACC (DNA:RNA)
RNA: B1 RNA with G26A, C27G, G29A, U31C
DNA 1: CAATCTGAATTCCGGTCTCCC
DNA 2: TGGTGGCTACGACGGGATT
B3: ACGAGUG (DNA:RNA)
RNA: B1 RNA with G25A, G26C, C27G, G28A, C30U, U31G
DNA 1: CAATCTGAATTCCGGTCTCCC
DNA 2: TGGTGGCTACGACGGGATT
B4: GCUUGAG (DNA:RNA)
RNA: B1 RNA with G26C, C27U, G28U, C30A, U31G
DNA 1: CAATCTGAATTCCGGTCTCCC
DNA 2: TGGTGGCTACGACGGGATT
B5: ACCGUAA (DNA:RNA)
RNA: B1 RNA with G25A, G26C, G29U, C30A, U31A
DNA 1: CAATCTGAATTCCGGTCTCCC
DNA 2: TGGTGGCTACGACGGGATT
B6: UAGGGAU (DNA:RNA)
RNA: B1 RNA with G25U, G26A, C27G, C30A
DNA 1: CAATCTGAATTCCGGTCTCCC
DNA 2: TGGTGGCTACGACGGGATT
B7: AAACCCC (DNA:RNA)
RNA: B1 RNA with G25A, G26A, C27A, G28C, G29C, U31C
DNA 1: CAATCTGAATTCCGGTCTCCC
DNA 2: TGGTGGCTACGACGGGATT
B8: ACAAAUU (DNA:RNA)
RNA: B1 RNA with G25A, G26C, C27A, G28A, G29A, C30U
DNA 1: CAATCTGAATTCCGGTCTCCC
DNA 2: TGGTGGCTACGACGGGATT
B9: GACUCAG (DNA:RNA)
RNA: B1 RNA with G26A, G28U, G29C, C30A, U31G
DNA 1: CAATCTGAATTCCGGTCTCCC
DNA 2: TGGTGGCTACGACGGGATT

The binders below were run against T1, RBFOX1 RRM (assay: EMSA; HiTS-Eq, 1 nM pool, 10 min; buffer printed only for the single-RNA assays: 10 mM Tris pH 7.5, 150 mM NaCl, 3.4 mM EDTA, 0.001% NP-40, 30 C). Conditions: tags: His6 N-terminal (pET28a); label: 5' 32P.
Summary of the method: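 Purified RbFox RRM (wild type or mutant) was equilibrated for 10 min in 50 µL with 1 nM of a 5′-radiolabelled pool of RNA with 7 randomized nucleotides, its flanks annealed to DNA oligonucleotides, across increasing protein concentrations. Free RNA was separated by 8% native PAGE, excised, reverse-transcribed, PCR-barcoded and sequenced on an Illumina HiSeq 2500. Relative association constants came from read-count changes of each variant against the control reaction, normalised to the cognate motif.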

| Binder | binding signal |
| --- | --- |
| B1 | 0.0115 KA relative to UGCAUGU |
| B2 | 0.00659 KA relative to UGCAUGU |
| B3 | 0.0145 KA relative to UGCAUGU |
| B4 | 0.0353 KA relative to UGCAUGU |
| B5 | 0.000487 KA relative to UGCAUGU |
| B6 | 0.00709 KA relative to UGCAUGU |
| B7 | 0.00111 KA relative to UGCAUGU |
| B8 | 0.000493 KA relative to UGCAUGU |
| B9 | 0.0163 KA relative to UGCAUGU |
